In the supplement of paper PMC10126150:
Values marked as one replicate rest on one cluster of the flow cell; about a third of the high ones do not repeat.

System: ATP
Assay: switch fluorescence ratio, 500 uM ATP over buffer (Cy3 cluster intensity, sum of 5 cycles each) (fold (ratio)); higher = stronger signal-on switching upon ATP binding; sequences stand for … in TCGTCGGCAGCGTCAGATGTGTATAAGAGACAGTTTTTTTTTTTTTTTTTTTTTTTTT…TC
Conditions: aptamer strand: ATP DNA aptamer (quencher-CACCTGGGGGAGTATTGCGGAGGAAGG + anchor), 100 nM annealed; ATP concentration: 500 uM; one replicate
How it was run: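 Between each of five buffer/ATP cycles, the flow-cell was stripped with NaOH and re-annealed. Each cycle imaged Cy3-labelled switching-strand clusters, annealed to 100 nM quencher-labelled ATP aptamer on a modified Illumina MiSeq flow-cell, first in selection buffer and then after 15 min with 500 uM ATP at 22 °C. The fluorescence ratio is summed target-cycle over summed buffer-cycle Cy3 intensity per cluster, averaged per switch-domain sequence, with clusters outside 100-1000 RFU excluded.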
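Note: ATP exposure 15 min at 22 °C before imaging.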

| Sequence | switch fluorescence ratio |
| --- | --- |
| TATTCATCTT | 0.992 |
| AAATACATCA | 0.996 |
| CTTGCCGACT | 1.08 |
| CGGTGAGTTA | 0.965 |
| GATTATAAAA | 0.975 |
| CGGTACGAAA | 1 |
| TAACCCCCGC | 1.7 |
| ATTCTGTGAC | 1.04 |
| TTACTCTGAT | 0.953 |
| CCGAGCACGC | 1.58 |
| ATGGCCACTA | 0.99 |
| TAAGTTAAG | 0.986 |
| CCTCGAAGTT | 1.07 |
| CGGTATGCGC | 0.984 |
| TATCGTTACT | 1.07 |
| GATGGGTCAA | 0.964 |
| GCTCGGGATG | 1.04 |
| GTTACTCGTG | 1.02 |
| CTTTCTCGGC | 2.1 |
| TAGGAAATAA | 1.04 |
| TCAAAATGGG | 1.05 |
| CTAAGCAGAA | 1.12 |
| AGGCCTAATG | 0.981 |

| Sequence | switch fluorescence ratio |
| --- | --- |
| GATTAATGCT | 1.01 |
| CTGGGTGCTG | 0.954 |
| CCAAGAATTT | 1.04 |
| GTTAACCTG | 1.07 |
| CGGATGATTC | 0.965 |
| ACAAGTATGC | 1.08 |
| GTCATTCTCT | 0.974 |
| CTTAGGCTGG | 0.997 |
| TACAATGAGA | 1.02 |
| ATGCGGAGGC | 0.983 |
| ATCAGCTAAA | 0.977 |
| AGCTTGGACA | 0.976 |
| CAAATCGCTC | 1.09 |
| AGAAGCTGGT | 1.07 |
| CTTCGGTTGC | 1.34 |
| CCCTGAGCCG | 0.975 |
| AGTGTCATGC | 0.948 |
| AGATGGGTCA | 1.06 |
| ATGCATTCTA | 1.05 |
| ATACTATTGC | 1.06 |
| ACGAGTGTGC | 0.983 |
| GTATTTTCTG | 1.02 |
| CGTTTTAATC | 1.05 |

| Sequence | switch fluorescence ratio |
| --- | --- |
| TCGTTCTTAT | 0.97 |
| AACATCACCA | 1.17 |
| GCTGATTC | 0.953 |
| GTTACGTTCC | 2.3 |
| CGTATCAATC | 1.5 |
| TCATAAGTCG | 0.947 |
| TGTCTAAGA | 1.06 |
| GTACGCAGCA | 1.59 |
| GTATTCTAGG | 0.998 |
| AGAACCGCAG | 1.34 |
| CGACTTCTGG | 1.02 |
| TCTAGTACGA | 1.1 |
| ATAAGAATAG | 1.04 |
| GCTGGTAATC | 0.976 |
| ATGGGGGTC | 1.02 |
| GCAATCACGG | 1.5 |
| TTCGGCAATT | 1.8 |
| AATGTCGCGG | 0.998 |
| TGTAAATAGT | 1.06 |
| GATCGGGCGC | 1.06 |
| CACAGAACGC | 1.09 |
| TACTTCACCT | 1.27 |
| CTCTATTGCG | 1.01 |

| Sequence | switch fluorescence ratio |
| --- | --- |
| TCTAAGCGCC | 1.02 |
| CCTAAGGGTC | 1.07 |
| TGTATTGGGG | 1.04 |
| GTTTCTTTTT | 1.02 |
| CCGTGATTGG | 1.19 |
| GGGGATCAGT | 0.964 |
| AGGATTATA | 1.01 |
| TCCCGGGGA | 1.01 |
| CTAAGCCCTG | 1.04 |
| GGTATCCCTC | 1.06 |
| TTTGAACCAC | 1.04 |
| AATTCTATGC | 1.07 |
| ATCGATGTCC | 1.05 |
| GTATAGAAAG | 0.973 |
| TCCAGCTAAT | 1.01 |
| GCAGTCCCAT | 1.04 |
| TGTCCTCCGA | 1.58 |
| CGGAATTGAA | 1.03 |
| TTAGAGGCT | 0.993 |
| GAGCACATTC | 2.17 |
| CGGAGTGTA | 1.05 |
| GTGTTCTTCA | 0.976 |
| ACGACCTCGC | 1.48 |

| Sequence | switch fluorescence ratio |
| --- | --- |
| AGGCTCTGGG | 1.03 |
| CGAATACCGC | 1.1 |
| GCGGAGGCCC | 1.02 |
| TGGATTGTCA | 0.996 |
| CTAGTCAGAT | 1.02 |
| GGAATTGCGG | 1.01 |
| AGGGTGGCAG | 0.983 |
| ATTGACGGGA | 1.06 |
| GGGTGGTTAT | 0.984 |
| GTAGACAGTC | 0.946 |
| CGTCTAAGTT | 0.965 |
| CTTAAGAAGG | 0.995 |
| AATCAGGATC | 0.998 |
| TTACAGGC | 1 |
| TATAGGTTGT | 1.06 |
| ATCTACCGGG | 1.01 |
| CAGTCGCCGG | 0.996 |
| CCCAGCGGTC | 2.52 |
| CAATAGTACA | 1.02 |
| TAAAAATTAG | 0.969 |
| TGCTTGAATA | 0.997 |
| TCCAGAAGTG | 1.08 |
| GGGGAGCTTT | 0.969 |

| Sequence | switch fluorescence ratio |
| --- | --- |
| TTCGATGGTA | 0.972 |
| CCGTTATGTA | 1.05 |
| AGGCCGCTAG | 1.02 |
| AGCTGTGTTT | 0.976 |
| AGTGCAGTAT | 0.995 |
| ATAATTACGT | 1.04 |
| CGTGCTTTCA | 0.982 |
| ATGGCTACGA | 1.03 |
| GGCACTTAGG | 1.03 |
| TAGAGTTAAA | 1.02 |
| CAAAGAGCAG | 0.976 |
| CCGGTACCAT | 0.988 |
| AACCAAATAG | 1.09 |
| GCCCATTTAA | 1.04 |
| TTGCCACCAC | 1.06 |
| TCTCCCGCCT | 1.47 |
| GTCAGACGGG | 0.943 |
| AATCGAAGT | 1.02 |
| AGGGACACTT | 0.98 |
| GACTGGCAAA | 1.01 |
| GAGCATCCGT | 1.03 |
| AGGGCTGTTT | 0.99 |
| TCTCTTGTAA | 1.02 |

| Sequence | switch fluorescence ratio |
| --- | --- |
| AACCACCGCT | 1.19 |
| TATGTTGGAG | 0.976 |
| AATTGAATCT | 0.989 |
| GAACTGGTTC | 0.974 |
| GCATTTTTT | 1.01 |
| CCTATGGGCT | 0.992 |
| GCAGTACTTG | 1.28 |
| CTCGGTCTAC | 2.06 |
| GAATTTATGT | 0.95 |
| CGAGTCAATA | 4.22 |
| ACAGAAACAT | 1.16 |
| AGTCATGACC | 1.07 |
| ATCGTGGCTA | 0.975 |
| AGGCATGGCG | 0.962 |
| CCGGCGCAT | 2.49 |
| ACCTAGTCTT | 1.06 |
| TTTATTATC | 1.02 |
| CGGTGTGCAA | 1.14 |
| AAGGTAAACT | 0.977 |
